The text below walks through data of ChEMBL document CHEMBL4888484, “Replenishing the malaria drug discovery pipeline: Screening and hit evaluation of the MMV Hit Generation Library 1 (HGL1) against asexual blood stage Plasmodium falciparum ,using a nano luciferase reporter read-out” (2022).

Hit rate of the full screen: of about 150,000 compounds, about 540 (0.36%) showed an effect of 50% or more. The list shows a part of the results.

Broadly, the % Inhibition is the relative decrease from the control value, in per cent.

This experiment has as its system Plasmodium falciparum. Nature of the experiment: Primary screen in NF54 nanoGlo assay, in single point, at 2uM, 72h; a lower Z score goes with more inhibition. Format: functional, Erythrocyte. The note with it: timepoint 72 hour.
Consider `COc1ccc(C(=O)N2c3ccccc3N=C(c3ccccc3)C[C@H]2c2ccccc2)cc1`, for which the “% Inhibition” value is on record as -2% and the Z score is recorded as 0.19.
Taken in the same sequence, the figures for `Cc1cc(NC(=O)N[C@@](C)(CO)C2CCCCC2)no1` were 11% and -1.48.
Taken in the same sequence, the figures for `Cc1c(C(F)(F)F)nn(C)c1NC(=O)[C@H]1OCCO[C@H]1C` were -8% and 1.15.
Turning to `CCC1CN2CCCC2CN1Cc1ccc(OC(F)F)cc1` (configuration not stated), the “% Inhibition” value is on record as 1% and the Z score is given as -0.12.
Taken in the same sequence, the figures for `Cc1ccc(F)c(C(=O)N[C@H]2CCN(c3cc(=O)[nH]cn3)C2)c1F` were -2% and 0.26.
Turning to `CCC(=O)N1CC[C@H](NC(=O)N(C)c2ccc(F)cc2)C1`, the “% Inhibition” value stood at 1% and the Z score is recorded as -0.09.
For the compound `C[C@H]1OCCN(C(=O)OC(C)(C)C)[C@@H]1C(=O)N(C)Cc1ccccn1`, the “% Inhibition” value was -1% and the Z score is listed as 0.1.
In the case of `CCOCCCNC(=O)C(=O)NCc1ccc(C)cc1`, the “% Inhibition” value is recorded as -8% and the Z score stood at 1.11.
For the compound `Cc1cc(NCc2ccc(S(=O)(=O)N3CCCC3)cc2)nc(N)n1`, the “% Inhibition” value is listed as -1% and the Z score was 0.23.
With `Cc1nonc1CN(C)Cc1cc(-c2ccc3c(c2)OCO3)ccc1OCC(=O)N1CCN(c2ccccc2F)CC1`, the “% Inhibition” value is -11% and the Z score was determined as 1.23.
Taken in the same sequence, the figures for `COCC1CCN(C[C@H]2C[C@@H]2c2ccccc2)C1` (some centres not stated) were -4% and 0.8.
Taken in the same sequence, the figures for `CN1C(=O)COC12CCN(Cc1nccn1CC(F)F)CC2` were -9% and 1.35.
Consider `COc1ccccc1CNC(=O)[C@H]1CCCN(c2nc3c(s2)c(C)nn3-c2ccccc2)C1`, for which the “% Inhibition” value is -13% and the Z score is 1.68.
Turning to `COc1cccc(CNS(C)(=O)=O)c1`, the “% Inhibition” value is -8% and the Z score was determined as 1.15.
Regarding `CC(C)n1nc2c(cc1=O)CN(c1ncccc1C#N)CC2`, the “% Inhibition” value amounted to 31% and the Z score is recorded as -3.49.
Taken in the same sequence, the figures for `CCc1cc(C(=O)N2C[C@H](N(C)C)C[C@H]2C(=O)O)cs1` were -2% and 0.36.
With `Cc1ncc(C(C)NC(C)c2cnn(Cc3ccccc3)c2)c(C)n1` (configuration not stated), the “% Inhibition” value is listed as 2% and the Z score was -0.42.
Taken in the same sequence, the figures for `CC(=O)N1CCN(C(=O)Nc2cccc(C)n2)CC1` were -5% and 0.58.
In the case of `Cc1nc(CN)cc(N[C@H]2C[C@@H]2c2ccccc2)n1`, the “% Inhibition” value stood at 2% and the Z score is -0.34.
Taken in the same sequence, the figures for `O=C(CN1CCCCC1)N1CCc2[nH]nc(-c3cccc(F)c3)c2C1` were -1% and 0.11.
With `Cc1ccnc(N2CC(C#N)C3(C2)C(=O)Nc2ccccc23)n1` (configuration not stated), the “% Inhibition” value was 9% and the Z score is recorded as -1.43.
Regarding `O=S(=O)(c1ccccc1)N1CCOc2ccc(N3CCOCC3)cc2C1`, the “% Inhibition” value is -1% and the Z score is 0.13.
Taken in the same sequence, the figures for `COc1cc(=O)n2c(c1C(=O)N(C)Cc1nonc1C)CCN(C(=O)Cc1ccc(F)cc1)CC2` were 12% and -1.47.
As to `c1ccc2c(c1)C[C@H](c1nc(C3CCOCC3)n[nH]1)CO2`, the “% Inhibition” value was determined as 9% and the Z score was -1.78.
Turning to `C=CCn1c(=O)c2sc(N(CC)CC)nc2n(CC(=O)Nc2cccc(OC)c2)c1=O`, the “% Inhibition” value was -31% and the Z score worked out at 2.75.
Turning to `O=C(NCCc1ccc(Cl)cc1)c1nnc([C@H](Nc2ccccc2)c2ccc(Cl)cc2)o1`, the “% Inhibition” value is listed as 2% and the Z score is -0.31.
Taken in the same sequence, the figures for `COc1ccc(-c2noc(-c3cccn3CC(=O)N3CCN(c4ccc(F)cc4)CC3)n2)cc1OC` were 12% and -1.5.
Taken in the same sequence, the figures for `COc1ccc(-c2cc3n(n2)C[C@@](C)(C(=O)NCc2ccccc2)N(Cc2ccc4c(c2)OCO4)C3=O)cc1` were 52% and -8.23.
Regarding `NC1CC(c2cc(NCc3ccc(Cl)cc3)nc(C3CC3)n2)C1` (configuration not stated), the “% Inhibition” value is 19% and the Z score is -3.37.
Taken in the same sequence, the figures for `CN(C)c1ccnc(N2CCOc3ccccc3C2)n1` were -23% and 2.96.
On to `COc1nc(NC[C@H]2CCN(C3CCCCC3)C2)ncc1F`, for which the “% Inhibition” value is -1% and the Z score is 0.19.
Consider `COc1c[nH]c(C(=O)N2CCC[C@H](N3CCc4ccccc4C3)C2)cc1=O`, for which the “% Inhibition” value is given as -11% and the Z score stood at 1.12.
Taken in the same sequence, the figures for `Nc1cccc(Oc2ccc(C(c3ccc(Oc4cccc(N)c4)cc3)(C(F)(F)F)C(F)(F)F)cc2)c1` were 7% and -1.22.
Turning to `Cc1nn(C)c2nc3c(c(N)c12)C(=O)C[C@@H](c1ccccc1)C3`, the “% Inhibition” value was -14% and the Z score was determined as 1.9.
For `Cc1ccccc1N1CCN(C(=O)c2csc(CN(Cc3cccc(Cl)c3)Cc3cccc(C(F)(F)F)c3)n2)CC1`, the “% Inhibition” value is -22% and the Z score was found to be 1.96.
With `CCOc1ncccc1C(=O)N[C@H]1CCCc2occc21`, the “% Inhibition” value is 0% and the Z score is listed as -0.04.
Taken in the same sequence, the figures for `CCCCNC(=O)C1CCN(c2nc3ccccc3n(CC)c2=O)CC1` were -7% and 1.26.
Taken in the same sequence, the figures for `c1ccc(CN2CCO[C@H](c3nc(-c4ccccc4)no3)C2)cc1` were -2% and 0.19.
For `OC1CCN([C@H]2CCN(Cc3cccc(C(F)(F)F)c3)C[C@@H]2O)CC1`, the “% Inhibition” value is given as -11% and the Z score is listed as 2.08.
Take `CCc1nc(N2CC[C@H](NC(=O)c3cnccn3)[C@@H](O)C2)no1`: the “% Inhibition” value was -16% and the Z score worked out at 1.57.
As for `O=C(c1ccccc1F)N1CCN(C(=O)c2nnn3c2CO[C@H](c2ccccc2)C3)CC1`, the “% Inhibition” value is listed as -15% and the Z score was found to be 2.41.
